In all, about 310,000 compounds went through this assay and about 14,000 (4.5%) showed an effect of 50% or more. The effect is printed as a negative number. The list shows a part of the results.
target: human ether-à-go-go-related gene (hERG) potassium channel (human, UniProt Q12809); assay: primary screen, population patch clamp on CHO cells stably expressing hERG
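Note: peak tail current of the secondary pulse compared with the same well before compound.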

Chain of human ether-à-go-go-related gene (hERG) potassium channel (Q12809 whole entry, looked up): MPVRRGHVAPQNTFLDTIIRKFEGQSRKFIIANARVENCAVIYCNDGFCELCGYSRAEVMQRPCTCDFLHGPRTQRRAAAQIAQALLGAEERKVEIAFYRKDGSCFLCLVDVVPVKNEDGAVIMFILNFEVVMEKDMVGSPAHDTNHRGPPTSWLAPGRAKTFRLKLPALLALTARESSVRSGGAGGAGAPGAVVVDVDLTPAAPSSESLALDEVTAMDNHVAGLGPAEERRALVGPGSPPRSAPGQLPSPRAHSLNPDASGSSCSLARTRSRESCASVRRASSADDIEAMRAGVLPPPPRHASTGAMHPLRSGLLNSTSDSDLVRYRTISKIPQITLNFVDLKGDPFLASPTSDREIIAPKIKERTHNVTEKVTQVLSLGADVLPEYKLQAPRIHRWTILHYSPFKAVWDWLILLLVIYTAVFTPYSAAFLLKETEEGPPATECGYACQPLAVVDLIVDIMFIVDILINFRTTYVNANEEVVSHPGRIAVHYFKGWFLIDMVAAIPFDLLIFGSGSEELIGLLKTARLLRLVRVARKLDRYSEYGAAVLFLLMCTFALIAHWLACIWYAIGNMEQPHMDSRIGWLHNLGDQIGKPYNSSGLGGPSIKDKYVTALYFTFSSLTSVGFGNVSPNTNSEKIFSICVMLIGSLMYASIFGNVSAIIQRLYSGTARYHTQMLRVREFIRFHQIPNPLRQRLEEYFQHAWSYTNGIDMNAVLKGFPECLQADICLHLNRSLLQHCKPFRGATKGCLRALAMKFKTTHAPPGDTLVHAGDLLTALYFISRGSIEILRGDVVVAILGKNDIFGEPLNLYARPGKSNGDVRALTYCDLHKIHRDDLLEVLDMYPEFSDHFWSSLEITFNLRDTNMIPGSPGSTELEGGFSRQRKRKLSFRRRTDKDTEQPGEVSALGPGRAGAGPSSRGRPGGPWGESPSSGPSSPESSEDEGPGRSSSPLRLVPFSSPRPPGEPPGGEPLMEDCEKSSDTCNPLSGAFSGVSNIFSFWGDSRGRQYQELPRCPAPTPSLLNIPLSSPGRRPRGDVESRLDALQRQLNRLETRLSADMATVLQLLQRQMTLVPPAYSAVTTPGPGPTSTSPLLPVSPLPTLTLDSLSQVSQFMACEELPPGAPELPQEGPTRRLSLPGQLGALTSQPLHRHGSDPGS

SMILES	hERG current change (%, negative = inhibition) at 10uM [%]
O=C(Nc1ccc(S(=O)(=O)N2CCOCC2)cc1)c1ccc([N+](=O)[O-])s1	5.57
O=c1[nH]c(=O)n(Cc2ccc(F)cc2)c(O)c1C=NCC1CCCO1 (stereo not shown)	-13
CCOC(=O)N1CCN(C(=O)CC(C)S(=O)(=O)c2cc3c(cc2C)NC(=O)CO3)CC1 (stereo not shown)	-34.7
O=C(Cc1ccc(F)cc1)Nc1nc(-c2ccc(F)c(F)c2)cs1	18
COc1cc(NC(=O)COC(=O)CNC(=O)c2ccc(C)s2)cc(OC)c1	4.76
COc1ccc(NC(=O)NCCc2c[nH]c3ccccc23)c(OC)c1	-5.03
COc1ccc(CSC2=CS(=O)(=O)c3ccccc3N2)cc1	1.85
Nc1nnc(SCC(=O)OCC(=O)NC2CCCCC2)s1	28
O=C1OC(c2ccc([N+](=O)[O-])cc2)=N/C1=C/N1CC2CC(C1)c1cccc(=O)n1C2 (stereo not shown)	-55.1
CN1C(=O)c2ccccc2Sc2ccc(NC(=O)N3CCOCC3)cc21	-7.88
COc1cccc(N2CCN(C(=O)c3ccc(CS(=O)c4ccc(C)cc4)o3)CC2)c1 (stereo not shown)	-18.5
CN(C)C(=O)/C(=C/c1cn(-c2ccccc2)nc1-c1cccc([N+](=O)[O-])c1)NC(=O)c1ccccc1	-29.1
COc1cc(OC)nc(Oc2cccc(Cl)c2C)n1	9.05
COc1ccc(C)cc1NC(=S)N1CCN(c2ccccn2)CC1	-2.19
COc1ccc(NC(=O)CSc2nnc(Cc3ccccc3)o2)c(OC)c1	3.61
Cc1ccc2c(c1)C(=O)c1c(C(=O)O)cccc1-2	-19.9
BrCC1C[n+]2c(SCc3ccccc3)nc3sc4c(c3c2O1)CCCC4.[Br-] (stereo not shown)	-4.88
Fc1cccc(C2NN=C(c3ccccc3)S2)c1 (stereo not shown)	9.74
Cl.O=C1C2CCN(CC2)C1Cc1ccc(OCc2ccccc2)cc1 (stereo not shown)	-1.16
O=C(CN1C(=O)c2ccccc2C1=O)NCC(=O)OCC(=O)c1ccc(Cl)cc1	16.2
CN(C)S(=O)(=O)c1cccc(N2C(=O)CC3(CCCCC3)CC2=O)c1	22.2
CCOC(=O)c1c(C)[nH]c(C(=O)COC(=O)/C=C/c2ccc3c(c2)OCO3)c1C	-21.5

SMILES	hERG current change (%, negative = inhibition) at 10uM [%]
CSc1nccc(NC(=O)c2cccc(Br)c2)n1	-9.46
O=C(C(=O)c1ccc(O)cc1)c1ccccc1	14.4
O=C(CCS(=O)(=O)c1ccccc1)Nc1nc2ccc(F)cc2s1	-20.3
COC(=O)c1ccc(S(=O)(=O)NNC(=O)c2ccc(S(=O)(=O)N3CCCCC3)cc2)cc1	0.496
Cc1ccccc1OS(=O)(=O)c1cn(C)c(=O)n(C)c1=O	11.4
CN(c1cccc(NC(=O)Cc2ccccc2)c1)S(C)(=O)=O	7.55
C=CCSc1ncc(-c2ccccc2)cn1	5.11
CCOC(=O)C(CSCC(=O)c1ccc(Br)cc1)NC(=O)OC(C)(C)C (stereo not shown)	-14.6
COCCNC(=O)CCCn1c(=O)c2cc(OC)c(OC)cc2n(CC(=O)Nc2ccc(C)c(F)c2)c1=O	14.1
O=C(Nc1ccc2c(c1)OCO2)c1ccccn1	10.2
Cc1noc(C)c1C(=O)OCC(=O)Nc1cccc(S(=O)(=O)N(C)C)c1	1.59
CCOC(=O)Cc1csc(NC(=O)CSc2nncn2C)n1	4.31
CCOc1ccc(-n2c(SCc3ccc(C#N)cc3)nnc2-c2cccnc2)cc1	-71.9
COc1ccc(NC(=O)N2CCCC(C(=O)NCc3ccccc3F)C2)cc1 (stereo not shown)	-4.05
CC[C@H](C)[C@H](NC(N)=O)C(=O)NCCc1ccc(OC)cc1	-0.532
Fc1ccc(C2CCCN2Cc2nc(-c3cnccn3)no2)cc1 (stereo not shown)	5.32
Cn1c(SCC(=O)Nc2cccc(S(=O)(=O)N3CCOCC3)c2)nnc1-c1ccncc1	-6.8
O=S(=O)(c1cccc(C(F)(F)F)c1)N1CCC(O)(c2cccnc2)CC1	-4.42
O=C(c1nc(SCc2ccc([N+](=O)[O-])cc2)n2ccccc12)C(F)(F)F	-71.1
CCOc1ccc(S(=O)(=O)N(CC(=O)NCC(F)(F)F)Cc2ccco2)cc1	-17.1
CC(C)(C)c1ccc(-n2ncc3c2CCCC3NC(=O)CCN2CCCC2=O)cc1 (stereo not shown)	10.6
